Laboratory results: PubChem BioAssay (NCI)
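The compound was tested at five concentrations on cells cultured in 96-well plates, with a 48-hour exposure period. Here, GI50 denotes the concentration required for 50% inhibition of growth.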 Some entries of the source have several records that differ or are many. The list is limited to them. An entry can have further records. For some assays here: Values that stand side by side are repeated measurements across runs, samples, wells, individuals or studies. Marks in square brackets tell the records apart. Letters count within one entry.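 At the TGI there is no net growth.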 For some assays here: Records of one sample usually come from different ranges of test concentrations, not given here; some values may only mark the edge of a range.

Assays:
Assay in all cases: growth of human tumour cells (NCI), 48 h
MOLT-4 leukemia = system: MOLT-4 leukemia
RXF 393 renal = system: RXF 393 renal
HT29 colon = system: HT29 colon
UACC-257 melanoma = system: UACC-257 melanoma
SK-MEL-2 melanoma = system: SK-MEL-2 melanoma
M14 melanoma = system: M14 melanoma
SNB-75 CNS = system: SNB-75 CNS
HOP-62 NSCLC = system: HOP-62 NSCLC
K-562 leukemia = system: K-562 leukemia
COLO 205 colon = system: COLO 205 colon
CCRF-CEM leukemia = system: CCRF-CEM leukemia
HOP-92 NSCLC = system: HOP-92 NSCLC
T-47D breast = system: T-47D breast
RPMI-8226 leukemia = system: RPMI-8226 leukemia
NCI-H522 lung = system: NCI-H522 lung
HCC-2998 colon = system: HCC-2998 colon
A549 NSCLC = system: A549 NSCLC
OVCAR-3 ovarian = system: OVCAR-3 ovarian
MALME-3M melanoma = system: MALME-3M melanoma
SR leukemia = system: SR leukemia
DU-145 prostate = system: DU-145 prostate
TK-10 renal = system: TK-10 renal
KM12 colon = system: KM12 colon
OVCAR-8 ovarian = system: OVCAR-8 ovarian

How did the TGI (MOLT-4 leukemia) turn out when `COc1cc2c(c(OC)c1OC)-c1ccc(SC)c(=O)cc1[C@@H](NC(=O)c1ccc([N+](=O)[O-])cc1)CC2` was run?
The TGI was 9.22 µM and > 100 µM.

And the TGI (RXF 393 renal)?
The TGI was 25 µM and 1.53 µM.

What about the TGI (HT29 colon) of the same molecule?
Its TGI is 7.05 nM and 10.1 µM.

What about the TGI (UACC-257 melanoma) of the same molecule?
The TGI was 9.44 µM and > 100 µM.

What about the TGI (SK-MEL-2 melanoma) of the same molecule?
The TGI was 882 nM and 26.3 µM.

What about the TGI (M14 melanoma) of the same molecule?
The TGI was 7.94 nM and 8.53 µM.

What about the TGI (SNB-75 CNS) of the same molecule?
Its TGI is 1.29 µM and > 100 µM.

What about the TGI (HOP-62 NSCLC) of the same molecule?
The TGI was 25 µM and 50.9 nM.

Which TGI (MOLT-4 leukemia) does the source give for `O=C1C(Br)=C(Br)C(=O)c2ccccc21` here?
Its TGI is 90.2 µM [sample A, 1 test] and 4.23 µM [sample B, mean of 3 tests].

And the GI50 (K-562 leukemia)?
Its GI50 is > 100 µM [sample A, 1 test] and 2.89 µM [sample B, mean of 3 tests].

What about the GI50 (COLO 205 colon) of the same molecule?
Its GI50 is > 100 µM [sample A, 1 test] and 2.96 µM [sample B, mean of 3 tests].

What about the TGI (COLO 205 colon) of the same molecule?
Its TGI is > 100 µM [sample A, 1 test] and 7.34 µM [sample B, mean of 3 tests].

And the TGI (CCRF-CEM leukemia)?
Its TGI is > 100 µM [sample A, 1 test] and 5.75 µM [sample B, mean of 2 tests].

Which results are given for `c1ccc2cc(C[n+]3ccn(Cc4ccc5ccccc5n4)c3)ccc2c1`?
GI50 (RXF 393 renal): 417 nM [sample A, 1 test] and 4.56 µM [sample B, 1 test]; TGI (UACC-257 melanoma): 808 nM [sample A, 1 test] and 9.94 µM [sample B, 1 test]; TGI (HOP-92 NSCLC): 671 nM [sample A, 1 test] and 8.82 µM [sample B, 1 test]; TGI (T-47D breast): 823 nM [sample A, 1 test] and 16.7 µM [sample B, 1 test]; TGI (RPMI-8226 leukemia): 827 nM [sample A, 1 test] and 12.9 µM [sample B, 1 test]; TGI (NCI-H522 lung): 986 nM [sample A, 1 test] and 12.4 µM [sample B, 1 test]; GI50 (SNB-75 CNS): 198 nM [sample A, 1 test] and 2.25 µM [sample B, 1 test]; TGI (SNB-75 CNS): 891 nM [sample A, 1 test] and 11.6 µM [sample B, 1 test]

What does the source list for `Cc1c2oc3c(C)cc(F)c(C(=O)NC4C(=O)NC(C(C)C)C(=O)N5CCCC5C(=O)N(C)CC(=O)N(C)C(C(C)C)C(=O)OC4C)c3nc-2c(C(=O)NC2C(=O)NC(C(C)C)C(=O)N3CCCC3C(=O)N(C)CC(=O)N(C)C(C(C)C)C(=O)OC2C)c(N)c1=O` (stereo not given)?
TGI (K-562 leukemia): 13.9 nM and 2.36 µM; TGI (HCC-2998 colon): 519 nM and > 100 µM; TGI (UACC-257 melanoma): 201 nM and 12 µM; TGI (A549 NSCLC): 2.22 µM and 25 µM; TGI (OVCAR-3 ovarian): 1.86 µM and > 100 µM; TGI (MALME-3M melanoma): 255 nM and 2.98 µM; TGI (SR leukemia): 71 nM and > 100 µM; TGI (RPMI-8226 leukemia): 7.66 nM and > 100 µM; TGI (M14 melanoma): 1.8 µM and > 100 µM; TGI (DU-145 prostate): 8.47 µM and > 100 µM; TGI (TK-10 renal): 9.34 µM and > 100 µM; TGI (KM12 colon): 251 nM and 98.5 µM; TGI (HOP-62 NSCLC): 1.71 µM and 22.1 µM; TGI (OVCAR-8 ovarian): 3.49 µM and > 100 µM
